Measured values from article PMC4336329 (PLoS ONE, 2015).
In all, about 310,000 compounds went through this assay and about 2,200 (0.71%) showed an effect of 50% or more. Effects have a minus sign here. The list shows a part of the results.

Target: human ether-à-go-go-related gene (hERG) potassium channel (human, UniProt Q12809)
Assay: primary screen, population patch clamp on CHO cells stably expressing hERG

Sequence of human ether-à-go-go-related gene (hERG) potassium channel (Q12809 whole entry, looked up): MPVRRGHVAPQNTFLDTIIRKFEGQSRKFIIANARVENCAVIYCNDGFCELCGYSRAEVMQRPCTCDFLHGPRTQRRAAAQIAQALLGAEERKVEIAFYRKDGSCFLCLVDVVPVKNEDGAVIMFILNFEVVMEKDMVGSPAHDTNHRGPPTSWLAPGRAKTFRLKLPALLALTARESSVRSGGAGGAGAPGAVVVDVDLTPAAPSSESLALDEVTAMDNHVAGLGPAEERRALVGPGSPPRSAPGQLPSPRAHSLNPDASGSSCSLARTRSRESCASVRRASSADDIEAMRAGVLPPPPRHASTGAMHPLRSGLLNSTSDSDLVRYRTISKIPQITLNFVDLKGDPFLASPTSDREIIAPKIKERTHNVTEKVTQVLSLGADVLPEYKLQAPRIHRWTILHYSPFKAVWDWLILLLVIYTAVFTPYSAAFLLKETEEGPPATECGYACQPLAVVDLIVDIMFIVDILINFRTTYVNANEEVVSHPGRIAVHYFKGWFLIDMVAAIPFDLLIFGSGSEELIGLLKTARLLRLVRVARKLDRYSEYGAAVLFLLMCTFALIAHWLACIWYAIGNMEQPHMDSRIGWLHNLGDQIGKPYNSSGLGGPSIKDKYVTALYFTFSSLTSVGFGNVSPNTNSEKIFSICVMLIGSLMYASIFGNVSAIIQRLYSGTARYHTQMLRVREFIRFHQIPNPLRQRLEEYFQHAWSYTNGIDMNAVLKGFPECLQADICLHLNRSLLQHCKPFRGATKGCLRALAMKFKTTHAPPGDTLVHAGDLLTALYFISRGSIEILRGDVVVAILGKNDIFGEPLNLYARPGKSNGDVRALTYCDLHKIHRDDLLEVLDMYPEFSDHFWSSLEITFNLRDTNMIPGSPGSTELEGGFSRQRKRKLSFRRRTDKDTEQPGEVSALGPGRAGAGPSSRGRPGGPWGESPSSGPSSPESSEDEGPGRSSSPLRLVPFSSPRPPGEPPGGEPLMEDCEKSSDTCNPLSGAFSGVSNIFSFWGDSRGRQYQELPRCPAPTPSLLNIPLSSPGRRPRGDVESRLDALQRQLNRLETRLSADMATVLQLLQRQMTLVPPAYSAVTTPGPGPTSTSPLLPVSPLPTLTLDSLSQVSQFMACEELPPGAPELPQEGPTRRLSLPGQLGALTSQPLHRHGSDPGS

Compound	hERG current change (%, negative = inhibition) at 1uM
CC(C)OC(=O)CSc1nc2c(cc1C#N)CCCCC2	10.2%
Cc1ccc(CC(=O)N2CCN(Cc3ccccc3)CC2)cc1	13.9%
Cc1ccccc1OCC(=O)NNC(=O)C1CCCCC1C(=O)O (stereo not drawn)	10%
O=C(Nc1ccc(Cl)cc1)OCc1cc(-c2ccccc2)on1	5.12%
COc1ccc(NC(=O)C2CCCN(CCCc3ccccc3)C2)cc1OCC(C)C.O=C(O)/C=C/C(=O)O (stereo not drawn)	10.3%
Cl.N[C@@H](Cc1c[nH]c2ccccc12)c1nnc(SCc2c(F)cccc2Cl)o1	13.5%
CCCCNC(=O)C1CC(c2ccc(C(F)(F)F)cc2)=NO1 (stereo not drawn)	8.91%
C/C(=N/NC(=O)CN1CCN(Cc2ccccc2Cl)CC1)c1ccncc1	-18.3%
CC1CCCCC1NC(=O)c1cn(C)c2ccc(S(=O)(=O)N3CCCC3)cc2c1=O (stereo not drawn)	17.3%
O=[N+]([O-])c1ccc(/C=[N+](\[O-])CCO)o1	8.78%
Cc1ccc(C(=O)NC(=S)Nc2cc(C(F)(F)F)ccc2Cl)cc1	14.8%
CC1=Nn2c(nnc2C2CCCCC2)SC1	-1.58%
Cc1ccc(N2CCN(C(=O)N3CCCC3)CC2)cc1C	4.47%
COC(=O)Cn1nc(-c2ccccc2)n(-c2ccccc2)c1=S	5.53%
O=C(Nc1cccc2ccccc12)N1CCCN(c2c(Cl)cncc2Cl)CC1	10.9%
Cc1ccc(S(=O)(=O)N2CCOCC2)cc1NC(=O)COc1cccc(Oc2ccccc2)c1	8.52%
CC1=NN(C(C#N)c2ccccc2)C(C)(C)C1 (stereo not drawn)	3.25%
Cc1cccc(/C(N)=N/OC(=O)c2cccs2)c1	13.4%
Cc1nc(-c2cccc(S(=O)(=O)N3CCCCC3)c2)cs1	-3.38%
COc1ccc(/C=C/C=N/NC(=O)COc2ccc(OC)cc2)cc1	11.6%
Cc1nc(C)c(C(=O)NNC(=O)c2ccc(Br)cc2)s1	16.3%
COc1cccc(CSc2nnc(-c3ccco3)n2C)c1	9.5%

Compound	hERG current change (%, negative = inhibition) at 1uM
Cc1ccc(S(=O)(=O)N/N=C\c2ccc([N+](=O)[O-])o2)cc1C	11.3%
C/C(O)=C\c1nc2ccccc2oc1=O	13.1%
O=C(N/N=C/c1ccc([N+](=O)[O-])o1)c1cc(-c2ccncc2)nc2ccccc12	-13.6%
O=C(CSc1nnc(SCc2ccccc2Cl)s1)N/N=C/c1c[nH]c2ccccc12	10.8%
COc1cccc(NC(=O)CN(C)C(=O)c2ccc(N3CCCCC3)c([N+](=O)[O-])c2)c1	-6.72%
Cc1ccc(C)c(NCC(=O)c2ccc(Cl)cc2)c1	16.1%
CCCNC(=O)C(Cc1ccccc1)NC(=O)c1cccc([N+](=O)[O-])c1 (stereo not drawn)	14.1%
CC1CC(C)CN(S(=O)(=O)c2ccc3c(c2)CC(C)N3C(=O)C2CC2)C1 (stereo not drawn)	16.6%
COc1ccc(C(CNC(=O)c2oc3ccc(Cl)cc3c2C)N2CCCCC2)cc1 (stereo not drawn)	10.9%
CCOC(=O)CC(=O)CSc1ncc(C(=O)OCC)c(N)n1	10.9%
CC(C)NC(=O)C(c1ccc(F)cc1)N(C(=O)CCC(=O)Nc1ccccn1)C1CCCCC1 (stereo not drawn)	5.91%
Cc1ccc(S(=O)(=O)NCc2ccncc2)c(C)c1C	14.8%
O=C(COC(=O)c1ncc(Cl)c(Cl)c1Cl)NC1CCS(=O)(=O)C1 (stereo not drawn)	-1.03%
N#Cc1c(SCC(N)=O)nsc1SCc1ccc(Cl)cc1	3.33%
O=C(Cc1ccc(S(=O)(=O)N2CCOCC2)s1)NCC(=O)Nc1ccccc1Br	6.56%
O=C(CN1C(=O)NC(Cc2ccccc2)C1=O)Nc1ccccc1 (stereo not drawn)	4.6%
COc1ccc(N(CC(=O)NCCOc2ccccc2)S(=O)(=O)c2ccc(C)cc2)cc1	-4.35%
Cc1ccc(CCNC(=O)C2CC(c3cccc(F)c3)=NO2)cc1 (stereo not drawn)	17.2%
COC(=O)c1c(NC(=O)CN2CCC(C(N)=O)CC2)c2c(C)cccc2n1C	23.3%
CCc1ccc(C2CC(c3ccco3)=NN2S(C)(=O)=O)cc1 (stereo not drawn)	15.3%
CN(C)C(CNC(=O)c1ccc2c(=O)n(-c3ccccc3F)c(=S)[nH]c2c1)Cc1ccccc1 (stereo not drawn)	7.71%
O=C1/C(=C/c2ccccc2Cl)N2CCC1CC2	10.3%

Compound	hERG current change (%, negative = inhibition) at 1uM
Cc1ccnc(NS(=O)(=O)c2ccc(NC(=O)C34CC5CC(C)(CC(C)(C5)C3)C4)cc2)n1	-8.01%
Cc1cc(C)nc(SCC(=O)Nc2ncc(Cc3ccc(Cl)c(Cl)c3)s2)n1	4.85%
Cc1ccc(N2CC(=O)N(NC(=O)c3sc4nc(C)cc(C)c4c3N)CC2=O)cc1	14.7%
Cc1cc(C)[n+](CCCC[n+]2c(C)cc(C)cc2C)c(C)c1.[O-][Cl+3]([O-])([O-])[O-]	-0.768%
O=C(N/C(=C\c1cccc([N+](=O)[O-])c1)C(=O)N(CCO)CCO)c1ccco1	15%
Cc1ccc(CCNC(=O)C2CCCN(C(=O)c3cc4sccc4n3C)C2)cc1 (stereo not drawn)	-1.74%
CC(C)OC(=O)C(C#N)c1nc2ccccc2nc1N1CCN(Cc2ccccc2)CC1 (stereo not drawn)	6.06%
Cc1cccc(C)c1NC(=S)N(C)CCc1ccccn1	1.67%
COc1cc2c(c(OC)c1OC)CCc1cnoc1-2	8.26%
COC(=O)c1sc2ccccc2c1-n1cccc1C(=O)C(=O)Nc1ccc(Cl)cc1	-2%
C/C(CC(=O)NC12CC3CC(CC(C3)C1)C2)=N\NC(=O)Cc1cccs1	4.16%
COc1ccc(NC(=O)c2cc(C(C)C)on2)cc1OC	8.12%
CC1CCCC(C)N1C(=O)c1cc(-c2ccco2)on1 (stereo not drawn)	10.2%
Cc1ccc(-c2nc(N)n(S(C)(=O)=O)n2)cc1	9.04%
CCNC(=S)N/N=C/c1cc(C)n(-c2ccc(Cl)cc2)c1C	12.4%
O=C(CN1C(=O)NC(c2ccccc2)(c2ccccc2)C1=O)NC1CCCCC1	2.49%
CCc1nnc(NS(=O)(=O)c2ccc(N3C(=O)C4CC=C(Cl)CC4C3=O)cc2)s1 (stereo not drawn)	12.5%
CCC(C)(C(=O)NC1CCCCC1)N(Cc1ccco1)C(=O)CNC(=O)c1ccccc1 (stereo not drawn)	5.02%
Cn1c(COc2ccccc2)nnc1SCC(=O)Nc1ccc(N2CCOCC2)c(Cl)c1	-11.4%
CC(=O)C1=C(C)N(Cc2ccccc2)C(=O)N[C@H]1c1cccc(F)c1	2.39%
COc1ccc(N2CC(C(=O)Nc3ccccc3N3CCCC3)CC2=O)c(OC)c1 (stereo not drawn)	8.29%
Cc1ccc(OCC(=O)NNC(=O)C2CCN(c3ncnc4sc(C)c(C)c34)CC2)cc1	-8.85%

Compound	hERG current change (%, negative = inhibition) at 1uM
CCCCCCSC1=C(C#N)C(c2ccc(O)cc2)CC(=O)N1 (stereo not drawn)	4.45%
Cc1cccc(-c2cc3nc(C)cc(N4CC(C)CC(C)C4)n3n2)c1 (stereo not drawn)	14.8%
CCOC(=O)c1sc(NC(=O)CCN2C(=O)c3cccc([N+](=O)[O-])c3C2=O)c(C(=O)OCC)c1C	-0.177%
O=C1CC(c2ccco2)CC(O)=C1C=Nc1cc(Cl)ccc1O (stereo not drawn)	14.2%
O=C(NCC1CCCO1)C1CC(=O)N(C2CCCCCC2)C1 (stereo not drawn)	16%
COC(=O)COc1cccc2c(=O)n(CC(=O)NCCc3ccccc3)ccc12	-0.762%
CC(Oc1ccccc1Br)C(=O)N1CCc2ccccc21 (stereo not drawn)	2.63%
O=C(Cn1cnc2ccccc2c1=O)Nc1ccc2c(c1)OCO2	10%
O=C(NCc1ccc(F)cc1)C(c1ccccc1)N(C(=O)c1csnn1)c1ccccc1 (stereo not drawn)	14.7%
COc1ccc(C(=O)/C=C/Nc2cc(C)ccn2)cc1	11.8%
O=C(c1cccc(S(=O)(=O)N2CCCC2)c1)c1cccc(S(=O)(=O)N2CCCC2)c1	3.85%
O=C(Oc1ccccc1C(=S)N1CCOCC1)c1ccccc1	12.5%
COc1cc(CNCCN2CCOCC2)ccc1OCc1cccc(Cl)c1.Cl	-14.7%
Cc1c(Cl)cnc(NC(=O)COC(=O)CCc2nc3ccccc3s2)c1Cl	7.23%
O=c1[nH]c2ccc(Cl)cc2c(-c2ccccc2)c1SC(=S)N1CCOCC1	1.71%
CCOCCNC(=O)c1ccccc1C(=O)NCCOCC	-2.45%
CCc1ccc2[nH]c(=O)c(CN(Cc3ccco3)S(=O)(=O)c3ccc4c(c3)OCCO4)cc2c1	0.917%
N#CCCn1cc(CNCc2ccccc2)c(-c2cccc([N+](=O)[O-])c2)n1	1.32%
Cc1ccc2cc(C)c3nnc(SCC(=O)c4cccs4)n3c2c1C	-0.578%
C[n+]1ccccc1COc1ccc(C(C)(C)C)cc1.Cc1ccc(S(=O)(=O)[O-])cc1	8.83%
CNc1c(-n2cc(C(=O)OC)c(C(=O)OC)c2C(=O)OC)c(=O)n(C)c(=O)n1C	11.5%
